Experimental findings from patent US20100015650 are described below.

In this series the target is T1, BRB1 tyrosine kinase substrate peptide.
T1 chain: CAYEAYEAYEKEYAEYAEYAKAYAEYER

B1: ABL (protein)
chain: LEICLKLVGCKSKKGLSSSSSCYLEEALQRPVASDFEPQGLSEAARWNSKENLLAGPSE[about 60 residues not listed]LEKHSWYHGPVSRNAAEYLLSSGINGSFLVRESESSPGQRSISLRYEGRVYHYRINTASDGKLYVSSESRFNTLAELVHHHSTVADGLITTLHYPAPKRNKPTVYGVSPNYDKWEMERTDITMKHKLGGGQYGEVYEGVWKKYSLTVAVKTLKEDTMEVEEFLKEAAVMKEIKHPNLVQLLGVCTREPPFYIITEFMTYGNLLDYLRECNRQEVNAVVLLYMATQISSAMEYLEKKNFIHRDLAARNCLVGENHLVKVADFGLSRLMTGDTYTAHAGAKFPIKWTAPESLAYNKFSIKSDVWAFGVLLWEIATYGMSPYPGIDLSQVYELLEKDYRMERPEGCPEKVYELMRACWQWNPSDRPSFAEIHQAFETMFQESSISDEVEKELGKQGVRGAVSTLLQAPELPTKTRTSRRAAEHRDTTDVPEMPHSKGQGESDPLDHEPAVSPLLPRKERGPPEGGLNEDERLLPKDKKTNLFSALIKKKKKTAPTPPKRSSSFREMDGQPERRGAGEEEGRDISNGALAFTPLDTADPAKSPKPSNGAGVPNGALRESGGSGFRSPHLWKKSSTLTSSRLATGEEEGGGSSSKRFLRSCSASCVPHGAKDTEWRSVTLPRDLQSTGRQFDSSTFGGHKSEKPALPRKRAGENRSDQVTRGTVTPPPRLVKKNEEAADEVFKDIMESSPGSSPPNLTPKPLRRQVTVAPASGLPHKEEAGKGSALGTPAAAEPVTPTSKAGSGAPGGTSKGPAEESRVRRHKHSSESPGRDKGKLSRLKPAPPPPPAASAGKAGGKPSQSPSQEAAGEAVLGAKTKATSLVDAVNSDAAKPSQPGEGLKKPVLPATPKPQSAKPSGTPISPAPVPSTLPSASSALAGDQPSSTAFIPLISTRVSLRKTRQPPERIASGAITKGVVLDSTEALCLAISRNSEQMASHSAVLEAGKNLYTFCVSYVDSIQQMRNKFAFREAINKLENNLRELQICPATAGSGPAATQDFSKLLSSVKEISDIVQR
As for B1, the Signal to Noise ratio with BRB1 Peptide (TR-FRET kinase assay; kinase 0.25 nM) was 4.1.

B2: ABL [T315I] (ABL1) (protein)
chain: LEICLKLVGCKSKKGLSSSSSCYLEEALQRPVASDFEPQGLSEAARWNSKENLLAGPSE[about 60 residues not listed]LEKHSWYHGPVSRNAAEYLLSSGINGSFLVRESESSPGQRSISLRYEGRVYHYRINTASDGKLYVSSESRFNTLAELVHHHSTVADGLITTLHYPAPKRNKPTVYGVSPNYDKWEMERTDITMKHKLGGGQYGEVYEGVWKKYSLTVAVKTLKEDTMEVEEFLKEAAVMKEIKHPNLVQLLGVCTREPPFYIIIEFMTYGNLLDYLRECNRQEVNAVVLLYMATQISSAMEYLEKKNFIHRDLAARNCLVGENHLVKVADFGLSRLMTGDTYTAHAGAKFPIKWTAPESLAYNKFSIKSDVWAFGVLLWEIATYGMSPYPGIDLSQVYELLEKDYRMERPEGCPEKVYELMRACWQWNPSDRPSFAEIHQAFETMFQESSISDEVEKELGKQGVRGAVSTLLQAPELPTKTRTSRRAAEHRDTTDVPEMPHSKGQGESDPLDHEPAVSPLLPRKERGPPEGGLNEDERLLPKDKKTNLFSALIKKKKKTAPTPPKRSSSFREMDGQPERRGAGEEEGRDISNGALAFTPLDTADPAKSPKPSNGAGVPNGALRESGGSGFRSPHLWKKSSTLTSSRLATGEEEGGGSSSKRFLRSCSASCVPHGAKDTEWRSVTLPRDLQSTGRQFDSSTFGGHKSEKPALPRKRAGENRSDQVTRGTVTPPPRLVKKNEEAADEVFKDIMESSPGSSPPNLTPKPLRRQVTVAPASGLPHKEEAGKGSALGTPAAAEPVTPTSKAGSGAPGGTSKGPAEESRVRRHKHSSESPGRDKGKLSRLKPAPPPPPAASAGKAGGKPSQSPSQEAAGEAVLGAKTKATSLVDAVNSDAAKPSQPGEGLKKPVLPATPKPQSAKPSGTPISPAPVPSTLPSASSALAGDQPSSTAFIPLISTRVSLRKTRQPPERIASGAITKGVVLDSTEALCLAISRNSEQMASHSAVLEAGKNLYTFCVSYVDSIQQMRNKFAFREAINKLENNLRELQICPATAGSGPAATQDFSKLLSSVKEISDIVQR
As for B2, the Signal to Noise ratio with BRB1 Peptide (TR-FRET kinase assay; kinase 0.5 nM) is 4.8.
